Laboratory results from US11564922B2, “Methods of treating crohn's disease and ulcerative colitis” (AbbVie Inc., priority 2017, dated 2023).
Marks after values point to notes of the source that are not given here.

System: patients with moderately to severely active Crohn's disease
Assay: Example 8: randomized double-blind placebo-controlled study of upadacitinib, 16-week induction, Crohn's disease
Settings: for Refractory patients achieving clinical remission at week 16, % / Refractory patients achieving endoscopic remission at 12 or 16 weeks, %: FIG. 9; for Steroid-free and CDAI < 150, Week 16 (NRI), % of patients / Steroid-free and clinical response, Week 16 (NRI), % of patients / Steroid-free remission, Week 16 (NRI), % of patients: among subjects taking steroids at BL; for CR70, Week 12 (NRI), % of patients / CR70, Week 16 (NRI), % of patients: decrease in CDAI score ≥70 from baseline; for CR100, Week 12 (NRI), % of patients / CR100, Week 16 (NRI), % of patients: decrease in CDAI score ≥100 from baseline

CC[C@@H]1CN(C(=O)NCC(F)(F)F)C[C@@H]1c1cnc2cnc3[nH]ccc3n12 [upadacitinib, (3S,4R)-3-ethyl-4-(3H-imidazo[1,2-a]pyrrolo[2,3-e]pyrazin-8-yl)-N-(2,2,2-trifluoroethyl)pyrrolidine-1-carboxamide]
CDAI < 150, Week 12 (NRI), % of patients (3 mg BID): 18.4%
CDAI < 150, Week 16 (NRI), % of patients (3 mg BID): (20.5%)
CDAI<150 at end of 16 week induction among patients who discontinued corticosteroids, % (3 mg BID): 19.0%
Clinical remission at end of 16 week induction among patients who discontinued corticosteroids, % (3 mg BID): 14.3%
Endoscopic Improvement, patients evaluated at Week 16, % (3 mg BID): 15.8%
Endoscopic response at end of 16 week induction among patients who discontinued corticosteroids, % (3 mg BID): 4.8%
Modified clinical remission at end of 16 week induction among patients who discontinued corticosteroids, % (3 mg BID): 14.3%
Patients tapering corticosteroids able to discontinue steroids by week 4, % (3 mg BID): 9.5%
Patients tapering corticosteroids able to discontinue steroids by week 8, % (3 mg BID): 23.8%
Patients tapering corticosteroids able to reduce their steroid dose by ≥50% by week 4, % (3 mg BID): 42.9%
Patients tapering corticosteroids able to reduce their steroid dose by ≥50% by week 8, % (3 mg BID): 42.9%
Patients tapering corticosteroids able to reduce their steroid dose by ≥50% by week 12, % (3 mg BID): 38.1%
Patients tapering corticosteroids able to reduce their steroid dose by ≥50% by week 16, % (3 mg BID): 38.1%
Risk Difference vs PBO, Endoscopic Remission (week 12 or 16) (3 mg BID): 10.3
Risk difference vs PBO, Clinical Remission (week 16) (3 mg BID): 2.0
Refractory patients achieving clinical remission at week 16, % (3 mg BID): 15.8%
Refractory patients achieving endoscopic remission at 12 or 16 weeks, % (3 mg BID): 13.2%
Endoscopic Improvement (Week 12 or 16), % of patients (3 mg BID, SES-CD >50% reduction from BL or ≥2 point reduction or endoscopic remission): 12.8%
Steroid-free and CDAI < 150, Week 16 (NRI), % of patients (3 mg BID): (20.0%)
Steroid-free and clinical response, Week 16 (NRI), % of patients (3 mg BID): (25%)
Steroid-free remission, Week 16 (NRI), % of patients (3 mg BID): (0)%)
CR70, Week 12 (NRI), % of patients (3 mg BID): 38.5%
CR70, Week 16 (NRI), % of patients (3 mg BID): (46.2%)
CR100, Week 12 (NRI), % of patients (3 mg BID): 30.8%
CR100, Week 16 (NRI), % of patients (3 mg BID): (33.3%)
CDAI < 150, Week 12 (NRI), % of patients (6 mg BID): 41.7%
CDAI < 150, Week 16 (NRI), % of patients (6 mg BID): (29.7%)
CDAI<150 at end of 16 week induction among patients who discontinued corticosteroids, % (6 mg BID): 22.2%
Clinical remission at end of 16 week induction among patients who discontinued corticosteroids, % (6 mg BID): 22.2%
Endoscopic Improvement, patients evaluated at Week 12, % (6 mg BID): 13.3%
Endoscopic Improvement, patients evaluated at Week 16, % (6 mg BID): 27.8%
Endoscopic remission at end of 16 week induction among patients who discontinued corticosteroids, % (6 mg BID): 11.1%
Endoscopic response at end of 16 week induction among patients who discontinued corticosteroids, % (6 mg BID): 16.7%
Modified clinical remission at end of 16 week induction among patients who discontinued corticosteroids, % (6 mg BID): 26.7%
Patients tapering corticosteroids able to discontinue steroids by week 4, % (6 mg BID): 11.1%
Patients tapering corticosteroids able to discontinue steroids by week 8, % (6 mg BID): 44.4%
Patients tapering corticosteroids able to reduce their steroid dose by ≥50% by week 4, % (6 mg BID): 50%
Patients tapering corticosteroids able to reduce their steroid dose by ≥50% by week 8, % (6 mg BID): 66.7%
Patients tapering corticosteroids able to reduce their steroid dose by ≥50% by week 12, % (6 mg BID): 61.1%
Risk Difference vs PBO, Endoscopic Remission (week 12 or 16) (6 mg BID): 8.1
Refractory patients achieving clinical remission at week 16, % (6 mg BID): 30.3%
Refractory patients achieving endoscopic remission at 12 or 16 weeks, % (6 mg BID): 21.2%
Steroid-free and CDAI < 150, Week 16 (NRI), % of patients (6 mg BID): (22.2%)
Steroid-free and clinical response, Week 16 (NRI), % of patients (6 mg BID): (50%)
Steroid-free remission, Week 16 (NRI), % of patients (6 mg BID): (5.6%)
CR70, Week 12 (NRI), % of patients (6 mg BID): 59.5%*
CR70, Week 16 (NRI), % of patients (6 mg BID): (54.1%)
CR100, Week 12 (NRI), % of patients (6 mg BID): 51.4%*
CR100, Week 16 (NRI), % of patients (6 mg BID): (40.5%)
CDAI < 150, Week 12 (NRI), % of patients (12 mg BID): 47.2%*
CDAI < 150, Week 16 (NRI), % of patients (12 mg BID): (38.9%)*
CDAI<150 at end of 16 week induction among patients who discontinued corticosteroids, % (12 mg BID): 41.2%
Clinical remission at end of 16 week induction among patients who discontinued corticosteroids, % (12 mg BID): 11.8%
Endoscopic Improvement, patients evaluated at Week 16, % (12 mg BID): 27.3%
Endoscopic remission at end of 16 week induction among patients who discontinued corticosteroids, % (12 mg BID): 5.9%
Endoscopic response at end of 16 week induction among patients who discontinued corticosteroids, % (12 mg BID): 17.6%
Modified clinical remission at end of 16 week induction among patients who discontinued corticosteroids, % (12 mg BID): 25.0%
Patients tapering corticosteroids able to discontinue steroids by week 4, % (12 mg BID): 11.8%
Patients tapering corticosteroids able to discontinue steroids by week 8, % (12 mg BID): 64.7%
Patients tapering corticosteroids able to reduce their steroid dose by ≥50% by week 4, % (12 mg BID): 82.4%
Patients tapering corticosteroids able to reduce their steroid dose by ≥50% by week 8, % (12 mg BID): 88.2%
Patients tapering corticosteroids able to reduce their steroid dose by ≥50% by week 12, % (12 mg BID): 88.2%
Risk Difference vs PBO, Endoscopic Remission (week 12 or 16) (12 mg BID): 8.3
Risk difference vs PBO, Clinical Remission (week 16) (12 mg BID): 0.3
Adjudicated major adverse cardiac events (MACE) (12 mg BID dose group): Two
Refractory patients achieving clinical remission at week 16, % (12 mg BID): 26.5%
Steroid-free and CDAI < 150, Week 16 (NRI), % of patients (12 mg BID): (38.9%)*
Steroid-free and clinical response, Week 16 (NRI), % of patients (12 mg BID): (44%)
Steroid-free remission, Week 16 (NRI), % of patients (12 mg BID): (5.6%)
CR70, Week 12 (NRI), % of patients (12 mg BID): 47.2%
CR70, Week 16 (NRI), % of patients (12 mg BID): (44.4%)
CR100, Week 12 (NRI), % of patients (12 mg BID): 41.7%
CR100, Week 16 (NRI), % of patients (12 mg BID): (44.4%)
CDAI < 150, Week 12 (NRI), % of patients (24 mg BID): 38.9%
CDAI < 150, Week 16 (NRI), % of patients (24 mg BID): (30.6%)
CDAI<150 at end of 16 week induction among patients who discontinued corticosteroids, % (24 mg BID): 33.3%
Clinical remission at end of 16 week induction among patients who discontinued corticosteroids, % (24 mg BID): 33.3%
Endoscopic Improvement, patients evaluated at Week 16, % (24 mg BID): 25%
Endoscopic remission at end of 16 week induction among patients who discontinued corticosteroids, % (24 mg BID): 20%
Endoscopic response at end of 16 week induction among patients who discontinued corticosteroids, % (24 mg BID): 20%
Modified clinical remission at end of 16 week induction among patients who discontinued corticosteroids, % (24 mg BID): 36.4%
Patients tapering corticosteroids able to discontinue steroids by week 4, % (24 mg BID): 6.7%
Patients tapering corticosteroids able to discontinue steroids by week 8, % (24 mg BID): 53.3%
Patients tapering corticosteroids able to reduce their steroid dose by ≥50% by week 4, % (24 mg BID): 46.7%
Patients tapering corticosteroids able to reduce their steroid dose by ≥50% by week 8, % (24 mg BID): 66.7%
Patients tapering corticosteroids able to reduce their steroid dose by ≥50% by week 12, % (24 mg BID): 60%
Risk Difference vs PBO, Endoscopic Remission (week 12 or 16) (24 mg BID): 22.2
Risk difference vs PBO, Clinical Remission (week 16) (24 mg BID): 11.4
Steroid-free and CDAI < 150, Week 16 (NRI), % of patients (24 mg BID): (33.3%)*
Steroid-free and clinical response, Week 16 (NRI), % of patients (24 mg BID): (67%)
Steroid-free remission, Week 16 (NRI), % of patients (24 mg BID): (13.3%)
CR70, Week 12 (NRI), % of patients (24 mg BID): 58.3%*
CR70, Week 16 (NRI), % of patients (24 mg BID): (63.9%)*
CR100, Week 12 (NRI), % of patients (24 mg BID): 52.8%*
CR100, Week 16 (NRI), % of patients (24 mg BID): (55.6%)*
CDAI < 150, Week 12 (NRI), % of patients (24 mg QD): 22.9%
CDAI < 150, Week 16 (NRI), % of patients (24 mg QD): (20.0%)
Endoscopic Improvement, patients evaluated at Week 12, % (24 mg QD): 12.5%
Risk Difference vs PBO, Endoscopic Remission (week 12 or 16) (24 mg QD): 14.3
Risk difference vs PBO, Clinical Remission (week 16) (24 mg QD): 3.5
Refractory patients achieving clinical remission at week 16, % (24 mg QD (two 12 mg BID doses given simultaneously)): 36.7%
Refractory patients achieving endoscopic remission at 12 or 16 weeks, % (24 mg QD (two 12 mg doses given simultaneously)): 33.3%
Steroid-free and CDAI < 150, Week 16 (NRI), % of patients (24 mg QD): (10.0%)
Steroid-free and clinical response, Week 16 (NRI), % of patients (24 mg QD): (30%)
Steroid-free remission, Week 16 (NRI), % of patients (24 mg QD): (0%)
CR70, Week 12 (NRI), % of patients (24 mg QD): 51.4%
CR70, Week 16 (NRI), % of patients (24 mg QD): (48.6%)
CR100, Week 12 (NRI), % of patients (24 mg QD): 40.0%
CR100, Week 16 (NRI), % of patients (24 mg QD): (31.4%)
Treatment emergent deaths (16-week induction): no treatment emergent deaths
Relationship between upadacitinib plasma concentrations and efficacy endpoints (clinical response, clinical remission, CDAI<150, endoscopic response, improvement and remission, FIGS. 3A-3I): Exposure-response relationships were observed
Onset of clinical remission (induction period): as early as week 12
Onset of endoscopic improvement (induction period): as early as week 12
Infections compared to placebo (upadacitinib BID dose groups): increased in all upadacitinib BID dose groups compared to placebo
Incident of adverse events, numerically higher compared to placebo (upadacitinib dose groups, 16-week induction): 3-13%
Decrease in hemoglobin, Crohn's subjects compared to RA patients (week 16 (LOCF), FIG. 5A): lower decreases in hemoglobin
